{"source": "PubChem BioAssay AID360", "about": "(National Center for Advancing Translational Sciences (NCATS), 2006)", "note": "The campaign covered roughly 48,000 compounds. About 550 (1.1%) were called active. This list was built around the results that the source calls inconclusive (neither active nor inactive); the mix of calls is not that of the screen. Rule as the data show it: active = potency below about 15 µM; inconclusive = mostly about 16 µM to 33 µM; inactive = weaker than that. Potencies of inconclusive entries are left out as doubtful fits. Potency is read from the fitted curve at half-maximal effect."}
{"target": "Lysosomal acid glucosylceramidase (Homo sapiens) (UniProt P04062)", "sequence (P04062 whole entry, looked up)": "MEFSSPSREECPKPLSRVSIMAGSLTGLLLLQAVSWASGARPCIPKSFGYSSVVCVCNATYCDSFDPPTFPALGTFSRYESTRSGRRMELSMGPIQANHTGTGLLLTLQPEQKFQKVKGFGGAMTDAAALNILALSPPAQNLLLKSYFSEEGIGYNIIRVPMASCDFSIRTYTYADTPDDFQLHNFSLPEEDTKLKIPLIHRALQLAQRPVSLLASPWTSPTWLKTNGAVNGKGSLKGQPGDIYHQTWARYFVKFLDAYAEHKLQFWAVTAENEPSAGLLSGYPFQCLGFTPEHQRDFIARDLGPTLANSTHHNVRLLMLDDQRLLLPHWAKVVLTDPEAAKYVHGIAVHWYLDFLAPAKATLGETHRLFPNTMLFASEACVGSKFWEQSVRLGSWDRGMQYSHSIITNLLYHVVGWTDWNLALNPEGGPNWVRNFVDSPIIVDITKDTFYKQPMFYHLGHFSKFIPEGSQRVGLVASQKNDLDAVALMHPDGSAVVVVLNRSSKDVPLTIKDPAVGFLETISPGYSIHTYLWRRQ", "assay": "Glucocerebrosidase;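 also: the screen sought inhibitors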", "details": "purified enzyme, resorufin glucoside fluorescence (screen aimed at inhibitors), 20 min", "in_short": "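Wild-type enzyme at 0.2 nM final in 50mM citric acid/KH2PO4, 10mM sodium taurocholate, 0.01% tween-20, pH 5.9, with resorufin beta-D-glucopyranoside at 30 uM final. Compounds titrated, 20 min at RT, red fluorescence read; AC50 from titration.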"}
{"compound": "CN1CCN(C2=C(Cl)C(=O)N(c3ccc(Cl)cc3)C2=O)CC1", "Potency": "inconclusive [decreasing]"}
{"compound": "O=C(Cn1c(=O)[nH]n(-c2ccccc2)c1=O)N1CCCc2ccccc21", "Potency": "active: 8.96 µM"}
{"compound": "CCOC(=O)CSc1nc2cc(C)cc(C)c2cc1C#N", "Potency": "inconclusive [increasing]"}
{"compound": "Cc1nnc(NC(=O)c2ccc(S(=O)(=O)N3CCCCCC3)cc2)o1", "Potency": "inconclusive [decreasing]"}
{"compound": "COc1ccc(CN(C)CC(=O)c2c(N)n(Cc3ccccc3)c(=O)n(C)c2=O)c(OC)c1", "Potency": "inconclusive [decreasing]"}
{"compound": "CCN1CCN(Cc2c(OC)ccc3ccccc23)CC1", "Potency": "inconclusive [decreasing]"}
{"compound": "Nc1ccc2c(c1)CCC2=O", "Potency": "inactive: > 76.9 µM"}
{"compound": "CCCCOn1c(C)c(C(=O)OCC)c2c3no[n+]([O-])c3ccc21", "Potency": "inconclusive [increasing]"}
{"compound": "N#CC1=C(SCC(=O)NC23CC4CC(CC(C4)C2)C3)NC(=O)C(C#N)C12CCCCC2", "note": "(stereo not drawn)", "Potency": "active: 6.16 µM"}
{"compound": "CC(=O)N1CCN(c2ccc(NC(=O)c3ccc4c(c3)OCCO4)cc2)CC1", "Potency": "inconclusive [decreasing]"}
{"compound": "Cc1nn(-c2ccccc2)c2sc(C(=O)C(C#N)c3ccccn3)cc12", "note": "(stereo not drawn)", "Potency": "inactive: > 76.9 µM"}
{"compound": "O=S1(=O)c2cccc3cccc(c23)N1Cc1ccc(-c2nnco2)cc1", "Potency": "inconclusive [increasing]"}
{"compound": "O=S1(=O)CC(NCc2ccccc2)C(Nc2ccc(Cl)cc2)C1", "note": "(stereo not drawn)", "Potency": "inconclusive [decreasing]"}
{"compound": "O=C(O)c1[nH]c2ccccc2c1NS(=O)(=O)Cc1ccccc1", "Potency": "inactive: > 76.9 µM"}
{"compound": "COCCCNC(=O)CCC(=O)Nc1ccc2nc(N3CCOCC3)cc(C)c2c1", "Potency": "active: 6.8 µM"}
{"compound": "O=C(CSCc1ccccc1Cl)N1CCN(c2ccccn2)CC1", "Potency": "active: 14.9 µM"}
{"compound": "CC(=O)Nc1nc(C)c(-c2csc(Nc3ccc(O)cc3)n2)s1", "Potency": "inconclusive [decreasing]"}
{"compound": "CCOC(=O)c1ccc(NC(=O)CCNc2c(N3CCCC3)c(=O)c2=O)cc1", "Potency": "inconclusive [decreasing]"}
{"compound": "Cc1cccc(-n2ncc3c(N4CCCC4)ncnc32)c1", "Potency": "inactive: > 76.9 µM"}
{"compound": "CC(C)c1nc2oc3c(NCC4CCCO4)ncnc3c2c2c1CCC2", "note": "(stereo not drawn)", "Potency": "inactive: > 76.9 µM"}
{"compound": "CCN(CC)S(=O)(=O)c1cc(C(=O)OCC(=O)c2ccc3c(c2)NC(=O)CO3)ccc1F", "Potency": "inconclusive [decreasing]"}
{"compound": "O=C(NCCN1CCCCC1)Nc1ccc(F)c(Cl)c1", "Potency": "inconclusive [decreasing]"}
{"compound": "Cc1cc2ncn(CC(O)COc3cccc(C(=O)O)c3)c2cc1C", "note": "(stereo not drawn)", "Potency": "inconclusive [decreasing]"}
{"compound": "COc1ccc2[nH]c(=O)c(CN(Cc3ccccc3OC)Cc3nnnn3CC3CCCO3)cc2c1", "note": "(stereo not drawn)", "Potency": "inactive: > 76.9 µM"}
{"compound": "O=C(NCCN1CCOCC1)c1cccc(Cl)c1", "Potency": "inconclusive [decreasing]"}
{"compound": "CCOc1ccc2[nH]c(=O)c(CN(Cc3cccs3)Cc3nnnn3C(C)(C)C)cc2c1", "Potency": "inconclusive [decreasing]"}
{"compound": "COc1cccc(NS(=O)(=O)c2ccc(Br)s2)c1", "Potency": "active: 14.3 µM"}
{"compound": "CCCCCCC(=O)N1CCC(c2nc3c(nnn3Cc3ccccc3Cl)c(=O)[nH]2)CC1", "Potency": "inconclusive [decreasing]"}
{"compound": "COc1ccccc1C1(O)CC2CCC(C1)N2S(=O)(=O)c1ccc(C(C)=O)cc1", "note": "(stereo not drawn)", "Potency": "inconclusive [decreasing]"}
{"compound": "Cc1cc(C(=O)CSCCCn2c(=O)[nH]c3ccccc32)c(C)n1C", "Potency": "inactive: > 76.9 µM"}
{"compound": "N#CNC(N)=Nc1cccc(Cl)c1", "Potency": "inconclusive [decreasing]"}
{"compound": "COc1ccc(Br)cc1C(=O)Nc1ccc(O)cc1", "Potency": "inactive: > 76.9 µM"}
{"compound": "COc1cccc(S(=O)(=O)Nc2ccc(C(=O)NCc3ccco3)cc2)c1", "Potency": "inconclusive [decreasing]"}
{"compound": "O=C(c1ccco1)N(CCCN1CCOCC1)c1nc(-c2ccc(F)cc2)cs1", "Potency": "inconclusive [decreasing]"}
{"compound": "CCN(CCNC(=O)C1CCCN(Cc2nc(-c3ccc(OC)cc3)oc2C)C1)c1ccccc1", "note": "(stereo not drawn)", "Potency": "inconclusive [decreasing]"}
{"compound": "COc1ccc(NS(=O)(=O)c2ccc(SC)cc2)cc1", "Potency": "inconclusive [decreasing]"}
{"compound": "Cc1nnc(NC(=O)c2ccc(C)c(S(=O)(=O)N3CCCCCC3)c2)s1", "Potency": "inconclusive [decreasing]"}
{"compound": "Nc1nc(CN2CCN(c3ccc(F)cc3)CC2)nc(N2CCCc3ccccc32)n1", "Potency": "active: 10.4 µM"}
{"compound": "COc1ccc(N2CSC3=C(C#N)C(c4cccs4)CC(=O)N3C2)cc1", "note": "(stereo not drawn)", "Potency": "inconclusive [decreasing]"}
{"compound": "COc1ccc(-n2cnnc2SCc2cnc(-c3ccccc3)s2)cc1", "Potency": "inconclusive [decreasing]"}
{"compound": "CC(C)(C)c1nnc(NC(=O)CN2C(=O)C3C4C=CC(C4)C3C2=O)s1", "note": "(stereo not drawn)", "Potency": "inactive: > 76.9 µM"}
{"compound": "COCCn1c(N)c(C(=O)Nc2sc3c(c2C(=O)OC)CCCC3)c2nc3ccccc3nc21", "Potency": "active: 7.59 µM"}
{"compound": "CS(=O)(=O)N1CCC(C(=O)N2CCC(Cc3ccccc3)CC2)CC1", "Potency": "inconclusive [decreasing]"}
{"compound": "COc1ccc(-c2oc3ncnc(NCCCN4CCOCC4)c3c2-c2ccc(OC)cc2)cc1", "Potency": "inconclusive [decreasing]"}
{"compound": "Cc1ccc2nc(NC(=O)C3CCN(S(=O)(=O)c4cccs4)CC3)sc2c1", "Potency": "inconclusive [decreasing]"}
{"compound": "NC(=O)NC(=O)Nc1ccccc1Cl", "Potency": "inactive: > 76.9 µM"}
{"compound": "O=S(=O)(c1ccc2c(c1)OCCO2)N1CCN(Cc2ccc3c(c2)OCO3)CC1", "Potency": "inconclusive [decreasing]"}
{"compound": "CCCCC(=O)Nc1nn(C)c2nc3c(C)cccc3cc12", "Potency": "inactive: > 76.9 µM"}
{"compound": "c1ccc(-c2nc(N3CCOCC3)c3ccccc3n2)nc1", "Potency": "inactive: > 76.9 µM"}
{"compound": "Cc1nc2c([nH]1)C1(CCN(Cc3ccccc3)CC1)C(C#N)=C(N)O2", "Potency": "inconclusive [decreasing]"}
{"compound": "CCOC(=O)N1CCN(C(=O)Nc2ccc(Cl)cc2)CC1", "Potency": "inactive: > 76.9 µM"}
{"compound": "CC(C)NC(=O)c1cc(C(=O)c2cc(Cl)ccc2O)coc1=N", "Potency": "inconclusive [decreasing]"}
{"compound": "C=CCOC(=O)C1=C(C)NC(SC)=C(C#N)C1c1ccc(OCC)cc1", "note": "(stereo not drawn)", "Potency": "inconclusive [decreasing]"}
{"compound": "Cc1cc(-c2nnco2)c(C)n1-c1ccc(F)cc1", "Potency": "inactive: > 76.9 µM"}
{"compound": "CCc1cc(=O)oc2cc(C)c3c(C)coc3c12", "Potency": "inactive: > 76.9 µM"}
{"compound": "O=C(Nc1ccc2c(c1)OCCO2)c1cncc(Br)c1", "Potency": "inactive: > 76.9 µM"}
{"compound": "COc1ccc(N(CC(=O)Nc2cc(Cl)ccc2OC)S(=O)(=O)c2c(C)noc2C)cc1", "Potency": "inconclusive [decreasing]"}
{"compound": "CCn1c(Cn2nnc(-c3ccccc3)n2)nnc1SCC(=O)Nc1ccc(C(C)=O)cc1", "Potency": "inconclusive [decreasing]"}
{"compound": "COc1cc(NC(=O)C2CCN(S(=O)(=O)c3ccc(Cl)cc3)CC2)ccc1-n1cnnn1", "Potency": "inconclusive [decreasing]"}
{"compound": "COc1ccc(OC)c2[nH]c(=O)c(CCNS(=O)(=O)c3ccc(C)cc3)cc12", "Potency": "inactive: > 76.9 µM"}
{"compound": "COc1ccc(-c2cc(C(=O)Nc3c(C)nn(Cc4ccccc4)c3C)no2)cc1", "Potency": "inactive: > 76.9 µM"}
{"compound": "Cc1cccc(NS(=O)(=O)c2ccc(C)c(C(=O)OCC(=O)Nc3cc(C)on3)c2)c1", "Potency": "active: 10.9 µM"}
{"compound": "CN1CCN(c2nc3c(c(=O)n(C)c(=O)n3C)n2CC(N)=O)CC1", "Potency": "inactive: > 76.9 µM"}
{"compound": "COc1cccc(OCC(O)CN2CCC(C)CC2)c1", "note": "(stereo not drawn)", "Potency": "inactive: > 76.9 µM"}
{"compound": "C=CCn1c(/N=C/c2ccc(N(C)C)cc2)nc2ccccc21", "Potency": "inactive: > 76.9 µM"}
{"compound": "COc1ccc(NC(=O)CSc2nnc(-c3ccoc3C)n2CCc2ccccc2)cc1", "Potency": "inactive: > 76.9 µM"}
{"compound": "CCCc1c(O)nc(SCCN(CC)CC)n(C(=O)c2ccccc2)c1=O", "Potency": "inconclusive [decreasing]"}
{"compound": "CN(C)c1ccc(C(=O)OCC(=O)Nc2ccc(S(N)(=O)=O)cc2)cc1", "Potency": "inconclusive [decreasing]"}
{"compound": "Fc1ccccc1N1CCN(C(c2ccncc2)c2nnnn2C2CCCC2)CC1", "note": "(stereo not drawn)", "Potency": "inconclusive [decreasing]"}
{"compound": "Cc1cc(C)nc(N2CCN(c3nc(C)nc4c3oc3ccccc34)CC2)n1", "Potency": "inactive: > 76.9 µM"}
{"compound": "CN1CCN(C(=O)CSc2nc(-c3cccs3)cc(-c3cccs3)c2C#N)CC1", "Potency": "active: 12.4 µM"}
{"compound": "Cc1ccc(C(c2nnnn2C(C)(C)C)N(Cc2ccco2)Cc2cccs2)cc1", "note": "(stereo not drawn)", "Potency": "inconclusive [decreasing]"}
{"compound": "O=C(COc1cc(Cl)c(Cl)cc1Cl)Nc1ccncc1", "Potency": "inconclusive [decreasing]"}
{"compound": "CCC(C)(C)n1nnnc1C(c1cc2ccc(OC)cc2[nH]c1=O)N1CCc2ccccc21", "note": "(stereo not drawn)", "Potency": "inconclusive [decreasing]"}
{"compound": "Nc1nonc1N1CCCCC1", "Potency": "inactive: > 76.9 µM"}
{"compound": "CCn1c(SCC(=O)N2CCCC2)nnc1-c1ccc(S(=O)(=O)N2CCCCCC2)cc1", "Potency": "inactive: > 76.9 µM"}
{"compound": "CCN1CCN(CCCNC(=O)c2cc3cc4ccc(OC)cc4nc3o2)CC1", "Potency": "inactive: > 76.9 µM"}
{"compound": "CCc1nc(SCCO)c2oc3ccccc3c2n1", "Potency": "inconclusive [increasing]"}
